Consider 61 compounds from PubChem BioAssay AID1347044 (National Center for Advancing Translational Sciences (NCATS), 2019).

SMILES strings stand for the structures. The list shows a part of the results. The main result of the screen is listed elsewhere. These columns were measured beside it and carry no call. The list favours compounds with an active or inconclusive main result. Words in brackets tell the shape of the fitted curve; partial curves, single points and poor fits give uncertain potencies.
Tags give direction and shape of the fitted curve.

The test can be described thus: Natriuretic polypeptide receptor (hNpr1) antagonism - Confirmation. Note: nearly all actives have a fitted effect of over 70% in size. Conditions: HEK293 hNpr1 cGMP GloSensor luminescence, ANP-stimulated; measured here: HEK-hNpr1 cytotoxicity, CellTiter-Glo. In short, it runs like this: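 HEK293 cells co-expressing hNpr1 and GloSensor cGMP sensor preloaded 2 h with 2% GloSensor reagent, compounds added 30 min at room temperature, then 0.1 nM hNppA for 20 min; luminescence read before and after agonist. Cytotoxicity counter-screen run.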
Consider `Clc1cnccc1CN1CCNc2cnc(Oc3ccccc3)cc2C1`, for which the 50% cytotoxic concentration (CC50) is 11.1 µM [falling, partial curve].
On to `CN(Cc1cccnc1)Cc1nc(C2(O)CCN(Cc3ccc(C(F)(F)F)cc3)CC2)cs1`, for which the CC50 was 0.685 µM [falling, full curve].
The value for `CC1=NS(=O)(=O)N(C)C=C1C(=O)OCc1noc(-c2ccccc2F)n1` was 19.3 µM [falling, partial curve].
As to `COc1ccc(C(=O)N2CCC(Cc3nc(-c4ccccc4)no3)CC2)cc1F`, the half-maximal cytotoxic concentration (CC50) is 4.32 µM [falling, full curve].
In the case of `Cc1nn(-c2ccc(F)cc2)c(Oc2ccc(F)cc2F)c1CCC(=O)NCC1CC1`, the half-maximal cytotoxic concentration (CC50) is 27.3 µM [falling, single point].
In the case of `O=C(CC(c1ccc(F)cc1)c1cn(Cc2ccccc2)c2ccc([N+](=O)[O-])cc12)N1CCOCC1` (stereo unspecified) it was 38.5 µM [falling, single point]; in that of `Cc1cccc(CN2CCc3nc(C(=O)Nc4ccc(Cl)cc4)oc3CC2)c1`, 28 µM [falling, partial curve].
In the case of `C[S+](=O)([O-])c1ccc(-c2cc(C(=O)NCCc3ccc(Cl)cc3)nn3cccc23)cc1` it was 9.68 µM [falling, partial curve].
The value for `CCCS(=O)(=O)N1CC(Oc2ccc(-c3noc(-c4cccnc4)n3)cc2)C1` was 19.3 µM [falling, partial curve].
On to `O=C1N(CC2CC2)CCOC12CCN([S+](=O)([O-])c1ccc(C(F)(F)F)cc1)CC2`, for which the CC50 is 22.2 µM [falling, partial curve].
In the case of `CCCc1ccc2oc(C(=O)N(CC)Cc3ccncc3)c(C)c2c1` it was 19.3 µM [falling, partial curve]; in that of `CCc1cc(N2CCCC(C(=O)c3sccc3C)C2)ncn1` (stereo unspecified), 15.3 µM [falling, partial curve]; in that of `COc1cccc(S(=O)(=O)N2CCC3(CC2)CC(N(C)Cc2ccccc2)CCO3)c1` (stereo unspecified), 21.7 µM [falling, partial curve].
In the case of `CC(C)c1noc(-c2cn(C3CCN(C(=O)c4cccc(Br)c4)C3)nn2)n1` (stereo unspecified) it was 24.3 µM [falling, partial curve].
In the case of `COc1ccc(C2Cn3nnc(C(=O)N4CCN(C(=O)Cc5cccc(F)c5)CC4)c3CO2)cc1` (stereo unspecified) it was 24.3 µM [falling, partial curve]; in that of `COc1cccc(-c2noc(CC3CCN(C(=O)c4ccccc4)CC3)n2)c1`, 21.7 µM [falling, partial curve].
Turning to `N#Cc1ccc(CN2CCC3(CC2)CC(=O)c2ccccc2O3)cc1`, the half-maximal cytotoxic concentration (CC50) was 31.4 µM [falling, partial curve].
The value for `COc1ccc(C(=O)N[C@H]2CO[C@H]3[C@@H]2OC[C@H]3OC(=O)Nc2ccccc2)cc1` was 39.6 µM [falling, partial curve, poor fit]; that for `Cc1cccc(-n2ncc3c2CCCC3NC(=O)CCC(F)(F)F)c1C` (stereo unspecified) was 34.3 µM [falling, single point].
The value for `COc1ccc(C(=O)N2CCC(n3cc(-c4nc(-c5ccccc5)no4)nn3)CC2)cc1` was 21.7 µM [falling, partial curve]; that for `COc1cc(Cl)ccc1C(=O)N1CCN(c2cc(-c3cccs3)[nH]n2)CC1` was 21.7 µM [falling, partial curve].
With `O=C(c1ccc(F)cc1)N1CCC(n2cc(-c3nc(-c4ccccc4)no3)nn2)CC1`, the CC50 is 21.7 µM [falling, partial curve].
`O=C(Nc1ccc(F)c(Cl)c1)C1CCc2sc(C(=O)N3CCOCC3)cc2C1` (stereo unspecified): the CC50 is 17.2 µM [falling, partial curve].
On to `Cc1nc(N2CCC(C(=O)NC3CCc4ccccc43)CC2)cc(C(F)(F)F)n1` (stereo unspecified), for which the CC50 is 21.7 µM [falling, partial curve].
Regarding `O=C(Nc1ccc(Cl)cc1)c1nc2c(o1)CCN(Cc1cccc(F)c1F)CC2`, the CC50 is 22.2 µM [falling, partial curve].
For `Cc1ccc(S(=O)(=O)N2CCc3c(C(=O)NCC(C)C)cccc32)cc1`, the CC50 is 27.3 µM [falling, partial curve, poor fit].
In the case of `CC1(C)[C@H](Cc2cc(CN3CCN(c4ccccc4)CC3)on2)C[C@@H]1NC(=O)NCc1ccccc1` it was 21.7 µM [falling, partial curve]; in that of `Cn1nc(C2CCN(S(=O)(=O)c3ccc4c(c3)CCCC4)CC2)n(C2CCCC2)c1=O`, 21.7 µM [falling, partial curve].
`COC(=O)c1cccc(C(=O)N2CCC(Cc3nc(-c4ccc(F)cc4)no3)CC2)c1`: the CC50 is 9.68 µM [falling, partial curve].
The value for `O=C(c1ccc(F)cc1Cl)N1CCN(c2cc(-c3ccc(F)cc3)[nH]n2)CC1` was 17.2 µM [falling, partial curve].
On to `COc1ccc(C2(C(=O)N3CCC(Cc4nc(-c5ccc(F)cc5)no4)CC3)CC2)cc1`, for which the cytotoxic concentration (CC50) is 8.62 µM [falling, partial curve].
The value for `COc1ccc(S(=O)(=O)N2CCc3c(C(=O)Nc4cccc(C)c4)cccc32)cc1` was 21.7 µM [falling, partial curve, poor fit]; that for `COc1cc(NC(=O)Cn2c(N(C)Cc3ccccc3)nc(C)cc2=O)cc(OC)c1OC` was 12.2 µM [falling, partial curve]; that for `COc1ccc(Nc2cnc3ccc(-c4ccccc4OC)nn23)cc1OC` was 28 µM [falling, partial curve].
In the case of `COC(=O)c1ccc(COC(=O)C2=CN(C)S(=O)(=O)N=C2C)o1` it was 17.2 µM [falling, partial curve].
Regarding `O=C(Cc1c[nH]c2ncc(-c3ccccc3Oc3ccccc3)cc12)NCc1cccnc1`, the cytotoxic concentration (CC50) is 31.4 µM [falling, partial curve].
The value for `CCc1cnc(N2CCC(Oc3cnc4c(ccn4CCN[S+](C)(=O)[O-])c3)CC2)nc1` was 12.2 µM [falling, partial curve].
The value for `Cc1ccccc1CN1CC[C@@H]2OCC(=O)N(C(C)C)[C@H]2CC1` was 8.86 µM [falling, full curve]; that for `CC(C)c1ccc(CN2CCC3(CC2)OCCN(c2ccc(F)cc2)C3=O)cc1` was 28 µM [falling, partial curve]; that for `O=C1COc2ccc(-c3ccc4c(c3)OCO4)nc2CN1Cc1ccc(F)cc1` was 62.7 µM [falling, single point].
Regarding `CCNC(=O)O[C@@H]1CO[C@H]2[C@@H]1OC[C@@H]2Nc1nccc(-c2ccc(-c3ccccc3)cc2)n1`, the CC50 is 8.62 µM [falling, partial curve].
In the case of `Cc1nn2c(c1-c1ccccc1OCc1ccccc1)N(CC1CC1)CCC2` it was 70.3 µM [falling, single point]; in that of `CN1C[C@@H](NC(=O)Nc2ccc(Cl)cc2)C[C@H]1c1nc(-c2ccc(F)cc2)no1`, 19.8 µM [falling, partial curve].
The value for `O=C(CC1CCCCC1)N1CCC(n2cc(-c3nc(-c4ccccc4)no3)nn2)CC1` was 21.7 µM [falling, partial curve]; that for `COc1cccc(-c2noc(CC3CCN(C(=O)c4ccc(N(C)C)cc4)CC3)n2)c1` was 19.3 µM [falling, partial curve]; that for `O=C1N(C2CCN(Cc3ccc(C(F)(F)F)cc3)CC2)Cc2cccn21` was 21.7 µM [falling, partial curve].
In the case of `COc1ccc(CCNC(=O)c2noc(-c3ccc(C)cc3)n2)cc1OC` it was 38.5 µM [falling, single point].
In the case of `O=C(Cc1c[nH]c2ncc(-c3ccccc3Oc3ccccc3)cc12)N1CCOCC1`, the CC50 was 31.4 µM [falling, partial curve].
Regarding `O=C1COc2ccc(OCc3cncs3)nc2CN1CCOc1ccccc1`, the half-maximal cytotoxic concentration (CC50) is 31.4 µM [falling, partial curve].
In the case of `CCc1noc(CC2CCOC3(CCN(S(=O)(=O)c4ccc(C(C)C)cc4)CC3)C2)n1` (stereo unspecified) it was 17.2 µM [falling, partial curve]; in that of `Cc1ccc(CN2CCN(C(=O)c3ccc4c(c3)C(O)CCCCCN4C)CC2)cc1` (stereo unspecified), 19.3 µM [falling, partial curve].
On to `COc1cccc(CN2CCOC3(CCN(Cc4ccc(C#N)cc4)CC3)C2=O)c1`, for which the CC50 was 31.4 µM [falling, partial curve].
In the case of `COc1ccc(C2Cn3nnc(C(=O)N4CCN(C(=O)c5ccc(C)s5)CC4)c3CO2)cc1` (stereo unspecified) it was 21.7 µM [falling, partial curve].
In the case of `COc1cccc(C(=O)N2CCc3onc(-c4cccc(F)c4)c3C2)c1OC` it was 15.3 µM [falling, partial curve]; in that of `Cc1cccc(-n2ncc3c2CCCC3NC(=O)c2c(F)ccc(F)c2F)c1C` (stereo unspecified), 17.2 µM [falling, partial curve]; in that of `N#Cc1cccc(-c2ccnc(N[C@H]3CO[C@H]4[C@@H]3OC[C@H]4OC(=O)Nc3ccc(Oc4ccccc4)cc3)n2)c1`, 5.44 µM [falling, full curve, poor fit].
As for `COc1ccc(-c2noc(CC3CCN(C(=O)Cc4ccc(C)cc4)CC3)n2)cc1`, the CC50 was 24.3 µM [falling, partial curve].
Turning to `Cc1cccc(NC(=O)Cn2c(N(C)Cc3ccccc3)nc(C)cc2=O)c1`, the CC50 is 19.3 µM [falling, partial curve].
In the case of `CCc1noc(CC2CCOC3(CCN(S(=O)(=O)c4ccccc4Cl)CC3)C2)n1` (stereo unspecified) it was 30.6 µM [falling, single point]; in that of `O=C(c1ccc(F)cc1)N1CCC(Cc2nc(-c3ccc(F)cc3)no2)CC1`, 3.06 µM [falling, full curve]; in that of `CSc1nccc(N2CCC3(CC2)CC(=O)N(CC(C)C)C3)n1`, 5.44 µM [falling, full curve].

A word on the CC50: it is the concentration at which the toxic effect on the cells reaches its halfway point. Read a low CC50 as greater toxicity to the cells.
